Test results reported in patent US20250376539A1 (KIRA PHARMACEUTICALS SUZHOU, published 2025).

How the values were obtained:
[1] = target: T1, recombinant human complement C2 (NP_000054.2), C-terminal 6His-tag, made in house (CHO cell expression) (human, UniProt P06681 21-752); assay: BLI (Gator), antibody on probe; 600 s association at pH 7.4, 600 s dissociation at pH 5.8
T1 construct: a linker before the tag is not described; also called human C2; Human C2
T1 sequence: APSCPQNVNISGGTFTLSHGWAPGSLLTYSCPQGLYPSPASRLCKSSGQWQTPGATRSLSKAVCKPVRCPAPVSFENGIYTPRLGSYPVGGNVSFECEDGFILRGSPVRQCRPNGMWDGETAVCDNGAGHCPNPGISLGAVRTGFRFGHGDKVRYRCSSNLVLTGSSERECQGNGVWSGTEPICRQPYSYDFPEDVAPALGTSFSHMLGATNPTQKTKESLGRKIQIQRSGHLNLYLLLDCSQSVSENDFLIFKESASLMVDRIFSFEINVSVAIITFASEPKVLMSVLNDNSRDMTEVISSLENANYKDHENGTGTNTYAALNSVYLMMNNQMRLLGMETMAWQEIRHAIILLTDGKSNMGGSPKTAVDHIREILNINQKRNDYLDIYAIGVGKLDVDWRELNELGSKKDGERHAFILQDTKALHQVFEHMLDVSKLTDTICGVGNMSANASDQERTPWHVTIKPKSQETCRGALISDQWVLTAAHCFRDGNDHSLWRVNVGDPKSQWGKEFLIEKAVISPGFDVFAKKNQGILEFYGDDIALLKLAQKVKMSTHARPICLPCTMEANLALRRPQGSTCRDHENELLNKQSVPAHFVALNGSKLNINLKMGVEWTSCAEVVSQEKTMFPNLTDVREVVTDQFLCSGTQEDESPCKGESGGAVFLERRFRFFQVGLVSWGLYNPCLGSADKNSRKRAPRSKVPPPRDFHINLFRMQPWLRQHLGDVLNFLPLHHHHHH
Procedure: (§1) The histidine mutant constructs in Table 4 were tested for their pH-dependent dissociation from human C2. Probe-immobilized anti-C2 antibodies were incubated with C2 at pH 7.4 for 600s, followed by a 600s dissociation period in K Buffer at pH 7.4 or pH 5.8. The data were processed and analyzed by the Gator evaluation software.
(§2) Non-fusion mAb were used for comparison.

[2] = target: T2, recombinant cynomolgus (cyno) complement C2 (XP_005553508.1), C-terminal 6His-tag, made in house (CHO cell … (cynomolgus monkey (Macaca fascicularis), UniProt P06681 21-752 (human entry))); assay: as above
T2 construct: also called cyno C2; Cyno C2
T2 chain: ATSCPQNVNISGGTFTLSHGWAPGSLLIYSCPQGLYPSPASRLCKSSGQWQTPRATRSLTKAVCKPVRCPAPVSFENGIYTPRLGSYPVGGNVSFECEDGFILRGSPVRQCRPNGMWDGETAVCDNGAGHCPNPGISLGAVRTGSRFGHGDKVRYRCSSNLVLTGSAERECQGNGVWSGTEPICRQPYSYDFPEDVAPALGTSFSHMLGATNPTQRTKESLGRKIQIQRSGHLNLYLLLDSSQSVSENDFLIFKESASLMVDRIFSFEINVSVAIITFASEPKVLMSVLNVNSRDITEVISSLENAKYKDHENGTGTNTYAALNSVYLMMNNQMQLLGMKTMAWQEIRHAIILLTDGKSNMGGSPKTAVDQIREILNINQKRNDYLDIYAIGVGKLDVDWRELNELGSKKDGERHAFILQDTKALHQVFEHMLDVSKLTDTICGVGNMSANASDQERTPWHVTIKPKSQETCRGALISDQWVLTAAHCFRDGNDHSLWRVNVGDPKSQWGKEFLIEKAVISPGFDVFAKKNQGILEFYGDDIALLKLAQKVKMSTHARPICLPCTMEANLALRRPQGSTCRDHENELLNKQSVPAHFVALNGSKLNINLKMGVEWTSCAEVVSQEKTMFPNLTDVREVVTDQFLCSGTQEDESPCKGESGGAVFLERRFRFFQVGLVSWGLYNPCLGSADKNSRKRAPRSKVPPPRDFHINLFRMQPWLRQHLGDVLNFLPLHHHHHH
Procedure: as §1, §2

[3] = target: T3, recombinant human C2a, C-terminal 6His-tag, made in house (CHO cell expression) (human, UniProt P06681 244-752); assay: binding kinetics (BLI presumed)
T3 sequence: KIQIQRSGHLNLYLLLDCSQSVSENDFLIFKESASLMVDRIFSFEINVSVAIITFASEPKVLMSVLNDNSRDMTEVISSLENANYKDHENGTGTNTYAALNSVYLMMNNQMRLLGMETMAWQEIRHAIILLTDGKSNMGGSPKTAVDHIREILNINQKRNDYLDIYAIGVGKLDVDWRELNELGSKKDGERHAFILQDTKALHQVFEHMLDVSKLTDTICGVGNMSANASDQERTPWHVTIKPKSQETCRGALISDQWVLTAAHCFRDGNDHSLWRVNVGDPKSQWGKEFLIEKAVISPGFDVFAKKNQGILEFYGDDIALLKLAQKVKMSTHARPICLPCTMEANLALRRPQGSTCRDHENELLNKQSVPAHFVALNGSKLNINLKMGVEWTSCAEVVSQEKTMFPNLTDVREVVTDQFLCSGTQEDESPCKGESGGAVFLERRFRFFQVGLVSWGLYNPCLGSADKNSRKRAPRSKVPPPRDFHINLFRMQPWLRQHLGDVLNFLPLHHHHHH

B1: 69.44FH (Factor H 1-5 fusion with 69.44; FH1-5 fused to the heavy chain C-terminus) (other)
heavy: QVQLVQSGAEVKKPGASVKVSCKASGYSFTTYYMYWVRQAPGQGLEWMGIITPSGGSTTYAQKFQDRVTMTRDASTTTVYMELSSLRSEDTAVYYCARGYEGSYGFDHWGQGTLVTVSSASTKGPSVFPLAPCSRSTSESTAALGCLVKDYFPEPVTVSWNSGALTSGVHTFPAVLQSSGLYSLSSVVTVPSSSLGTKTYTCNVDHKPSNTKVDKRVESKYGPP[human IgG4 Fc with S228P M428L N434A (EU numbers) not shown]EDCNELPPRRNTEILTGSWSDQTYPEGTQAIYKCRPGYRSLGNIIMVCRKGEWVALNPLRKCQKRPCGHPGDTPFGTFTLTGGNVFEYGVKAVYTCNEGYQLLGEINYRECDTDGWTNDIPICEVVKCLPVTAPENGKIVSSAMEPDREYHFGQAVRFVCNSGYKIEGDEEMHCSDDGFWSKEKPKCVEISCKSPDVINGSPISQKIIYKENERFQYKCNMGYEYSERGDAVCTESGWRPLPSCEEKSCDNPYIPNGDYSPLRIKHRTGDEITYQCRNGFYPATRGNTAKCTSTGWIPAPRCTLKP
light: SYELTQPPSVSLSPGQTASITCSGDKLGNKYTCWYQQKPGQSPVLVIYQDNKRPSGIPERFSGSNSGNTATLTISGTQAMDEADYYCQTWDSSTAVFGGGTKLTVLGQPKAAPSVTLFPPSSEELQANKATLVCLISDFYPGAVTVAWKADSSPVKAGVETTTPSKQSNNKYAASSYLSLTPEQWKSHRSYSCQVTHEGSTVEKTVAPTECS
notes: Antibody-factor H fusion protein
In the case of B1, the “Dissociation (%) pH 5.8” value [1] is reported as 0.93%, the “Dissociation (%) pH 5.8” value [2] is reported as 6.05% and the Kd [3] is reported as 0.221 nM. The koff [3] was 4.01e-05 s⁻¹ and the kon [3] was 182000 M⁻¹ s⁻¹.
